The list shows a part of the results.
Assays:
Assay in all cases: glycan array binding signal (z-score within array); higher = stronger binding
Conditions in all cases: glycan notation: IUPAC condensed, linker removed
Fuc(a1-2)Gal = target: Fuc(a1-2)Gal
In short: (§1)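 From the Consortium for Functional Glycomics database, 3228 arrays were curated, keeping only those whose protein sequence was available. Binding is given as a within-array Z-score averaged across arrays sharing a protein sequence and across linkers. Negative Z-scores can be read as non-binding.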

Fuc(a1-2)Gal(b1-3)GalNAc = target: Fuc(a1-2)Gal(b1-3)GalNAc
In short: as §1

[1] = target: Fuc(a1-2)Gal(b1-3)GalNAc(b1-3)Gal
In short: as §1

[2] = target: Fuc(a1-2)Gal(b1-3)GalNAc(b1-3)Gal(a1-4)Gal(b1-4)Glc
In short: as §1

[3] = target: Fuc(a1-2)Gal(b1-3)GalNAc(b1-4)[Neu5Ac(a2-3)]Gal(b1-4)Glc
In short: as §1

Fuc(a1-2)Gal(b1-3)GlcNAc = target: Fuc(a1-2)Gal(b1-3)GlcNAc
In short: as §1

[4] = target: Fuc(a1-2)Gal(b1-3)[Fuc(a1-4)]GlcNAc
In short: as §1

Fuc(a1-2)Gal(b1-4)Glc = target: Fuc(a1-2)Gal(b1-4)Glc
In short: as §1

Fuc(a1-2)Gal(b1-4)GlcNAc = target: Fuc(a1-2)Gal(b1-4)GlcNAc
In short: as §1

[5] = target: Fuc(a1-2)Gal(b1-4)GlcNAc(b1-3)Gal(b1-4)GlcNAc
In short: as §1

[6] = target: Fuc(a1-2)Gal(b1-4)GlcNAc(b1-3)Gal(b1-4)GlcNAc(b1-3)Gal(b1-4)GlcNAc
In short: as §1

[7] = target: Fuc(a1-2)Gal(b1-4)[Fuc(a1-3)]GlcNAc
In short: as §1

Fuc(a1-2)GlcNAc = target: Fuc(a1-2)GlcNAc
In short: as §1

Fuc(a1-2)[Gal(a1-3)]Gal = target: Fuc(a1-2)[Gal(a1-3)]Gal
In short: as §1

[8] = target: Fuc(a1-2)[Gal(a1-3)]Gal(b1-4)GlcNAc
In short: as §1

[9] = target: Fuc(a1-2)[Gal(a1-4)]Gal(b1-4)GlcNAc
In short: as §1

[10] = target: Fuc(a1-2)[GalNAc(a1-3)]Gal
In short: as §1

[11] = target: Fuc(a1-2)[GalNAc(a1-3)]Gal(b1-4)GlcNAc
In short: as §1

[12] = target: Fuc(a1-2)[GalNAc(a1-4)]Gal(b1-4)GlcNAc
In short: as §1

[13] = target: Fuc(a1-2)[GalNAc(b1-3)]Gal
In short: as §1

Fuc(a1-3)GlcNAc = target: Fuc(a1-3)GlcNAc
In short: as §1

[14] = target: Fuc(a1-3)[Gal(b1-4)]GlcNAc
In short: as §1

[15] = target: Fuc(a1-3)[Gal(b1-4)]GlcNAc(b1-3)Gal(b1-4)[Fuc(a1-3)]GlcNAc
In short: as §1

[16] = target: Fuc(a1-3)[Gal(b1-4)]GlcNAc(b1-3)Gal(b1-4)[Fuc(a1-3)]GlcNAc(b1-3)Gal(b1-4)[Fuc(a1-3)]GlcNAc
In short: as §1

[17] = target: Fuc(a1-3)[Gal3S(b1-4)]GlcNAc
In short: as §1

Fuc(b1-3)GlcNAc = target: Fuc(b1-3)GlcNAc
In short: as §1

Gal(a1-2)Gal = target: Gal(a1-2)Gal
In short: as §1

Gal(a1-3)Gal = target: Gal(a1-3)Gal
In short: as §1

Gal(a1-3)Gal(b1-4)Glc = target: Gal(a1-3)Gal(b1-4)Glc
In short: as §1

Gal(a1-3)Gal(b1-4)GlcNAc = target: Gal(a1-3)Gal(b1-4)GlcNAc
In short: as §1

[18] = target: Gal(a1-3)Gal(b1-4)[Fuc(a1-3)]GlcNAc
In short: as §1

Gal(a1-3)GalNAc = target: Gal(a1-3)GalNAc
In short: as §1

[19] = target: Gal(a1-3)[Gal(a1-4)]Gal(b1-4)GlcNAc
In short: as §1

Gal(a1-4)Gal(b1-4)Glc = target: Gal(a1-4)Gal(b1-4)Glc
In short: as §1

Gal(a1-4)Gal(b1-4)GlcNAc = target: Gal(a1-4)Gal(b1-4)GlcNAc
In short: as §1

Gal(a1-4)GlcNAc = target: Gal(a1-4)GlcNAc
In short: as §1

B1: RegIIIgamma (Mus musculus), O09049 (protein)
chain: MLPRITITIMSWMLLSCLMLLSQVQGEVAKKDAPSSRSSCPKGSRAYGSYCYALFSVSKNWYDADMACQKRPSGHLVSVLSGAEASFLSSMIKSSGNSGQYVWIGLHDPTLGYEPNRGGWEWSNADVMNYINWETNPSSSSGNHCGTLSRASGFLKWRENYCNLELPYVCKFKA
Fuc(a1-2)Gal
  glycan array binding signal (z-score): -0.255
Fuc(a1-2)Gal(b1-3)GalNAc
  glycan array binding signal (z-score): -0.245
[1]
  glycan array binding signal (z-score): 0.23
[2]
  glycan array binding signal (z-score): -0.221
[3]
  glycan array binding signal (z-score): -0.104
Fuc(a1-2)Gal(b1-3)GlcNAc
  glycan array binding signal (z-score): -0.26
[4]
  glycan array binding signal (z-score): -0.211
Fuc(a1-2)Gal(b1-4)Glc
  glycan array binding signal (z-score): -0.27
Fuc(a1-2)Gal(b1-4)GlcNAc
  glycan array binding signal (z-score): -0.26
[5]
  glycan array binding signal (z-score): -0.226
[6]
  glycan array binding signal (z-score): 0.632
[7]
  glycan array binding signal (z-score): -0.246
Fuc(a1-2)GlcNAc
  glycan array binding signal (z-score): -0.261
Fuc(a1-2)[Gal(a1-3)]Gal
  glycan array binding signal (z-score): -0.293
[8]
  glycan array binding signal (z-score): -0.269
[9]
  glycan array binding signal (z-score): -0.235
[10]
  glycan array binding signal (z-score): -0.258
[11]
  glycan array binding signal (z-score): -0.256
[12]
  glycan array binding signal (z-score): 0.006
[13]
  glycan array binding signal (z-score): -0.266
Fuc(a1-3)GlcNAc
  glycan array binding signal (z-score): -0.264
[14]
  glycan array binding signal (z-score): 0.137
[15]
  glycan array binding signal (z-score): 0.002
[16]
  glycan array binding signal (z-score): -0.232
[17]
  glycan array binding signal (z-score): -0.124
Fuc(b1-3)GlcNAc
  glycan array binding signal (z-score): 0.104
Gal(a1-2)Gal
  glycan array binding signal (z-score): -0.292
Gal(a1-3)Gal
  glycan array binding signal (z-score): -0.258
Gal(a1-3)Gal(b1-4)Glc
  glycan array binding signal (z-score): -0.236
Gal(a1-3)Gal(b1-4)GlcNAc
  glycan array binding signal (z-score): -0.232
[18]
  glycan array binding signal (z-score): -0.233
Gal(a1-3)GalNAc
  glycan array binding signal (z-score): -0.258
[19]
  glycan array binding signal (z-score): 0.491
Gal(a1-4)Gal(b1-4)Glc
  glycan array binding signal (z-score): -0.248
Gal(a1-4)Gal(b1-4)GlcNAc
  glycan array binding signal (z-score): -0.259
Gal(a1-4)GlcNAc
  glycan array binding signal (z-score): -0.256

— the supplement of paper PMC8728848
